Positions of bridges follow the written chain, without caps; N, C: chain ends. Residues, ends and D or L forms follow the SMILES beside them. *: point of attachment. 6FAM = O=C1OC2(c3ccc(O)cc3Oc3cc(O)ccc32)c2cc(C(=O)*)ccc21; X1 = NC(=O)COCC(=O)NCCOCCOCCOCCN*
Tested on: laser-induced CNV lesions of the eye
Assay: Imaging of choroid neovascularization (CNV) in rat, fluorescence fundus imaging
Conditions: Long Evans rat, i.v. 20 μg/kg, 1 hour post inducing CNV (day 0 post-laser), images taken immediately after administration; compared to the negative control (FIG. 1 vs FIG. 2)

Compound: N=C(N)NCCC[C@@H]1NC(=O)[C@@H]2CSSC[C@H](NC(=O)[C@H](CC(=O)O)NC(=O)CNC1=O)C(=O)N[C@@H](Cc1ccccc1)C(=O)N[C@H](C(=O)NCCOCCOCCOCCNC(=O)COCC(N)=O)CSCC(=O)N[C@@H](CCCCNC(=O)c1ccc3c(c1)C1(OC3=O)c3ccc(O)cc3Oc3cc(O)ccc31)C(=O)N2 [Contrast agent H, disulfide [Cys^2-6] thioether cyclo[CH2CO-Lys(fluorescein)-Cys^2-Arg-Gly-Asp-Cys^6-Phe-Cys]-PEG-NH2] ({CH2CO}-K(6FAM)CRGDCFC-X1; disulfide 2-6; thioether N-8)
- intensity of signal for the induced lesions of the eye: increased intensity of signal
